Laboratory results as given in paper PMC4336329 (PLoS ONE, 2015).
About 14,000 (4.5%) of roughly 310,000 compounds showed an effect of 50% or more. Effects have a minus sign here. The list shows a part of the results.

What follows are compounds tested against human ether-à-go-go-related gene (hERG) potassium channel (human, UniProt Q12809) (assay: primary screen, population patch clamp on CHO cells stably expressing hERG).
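Note: peak tail current of the secondary pulse compared with the same well before compound.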

Sequence of human ether-à-go-go-related gene (hERG) potassium channel (Q12809 whole entry, looked up): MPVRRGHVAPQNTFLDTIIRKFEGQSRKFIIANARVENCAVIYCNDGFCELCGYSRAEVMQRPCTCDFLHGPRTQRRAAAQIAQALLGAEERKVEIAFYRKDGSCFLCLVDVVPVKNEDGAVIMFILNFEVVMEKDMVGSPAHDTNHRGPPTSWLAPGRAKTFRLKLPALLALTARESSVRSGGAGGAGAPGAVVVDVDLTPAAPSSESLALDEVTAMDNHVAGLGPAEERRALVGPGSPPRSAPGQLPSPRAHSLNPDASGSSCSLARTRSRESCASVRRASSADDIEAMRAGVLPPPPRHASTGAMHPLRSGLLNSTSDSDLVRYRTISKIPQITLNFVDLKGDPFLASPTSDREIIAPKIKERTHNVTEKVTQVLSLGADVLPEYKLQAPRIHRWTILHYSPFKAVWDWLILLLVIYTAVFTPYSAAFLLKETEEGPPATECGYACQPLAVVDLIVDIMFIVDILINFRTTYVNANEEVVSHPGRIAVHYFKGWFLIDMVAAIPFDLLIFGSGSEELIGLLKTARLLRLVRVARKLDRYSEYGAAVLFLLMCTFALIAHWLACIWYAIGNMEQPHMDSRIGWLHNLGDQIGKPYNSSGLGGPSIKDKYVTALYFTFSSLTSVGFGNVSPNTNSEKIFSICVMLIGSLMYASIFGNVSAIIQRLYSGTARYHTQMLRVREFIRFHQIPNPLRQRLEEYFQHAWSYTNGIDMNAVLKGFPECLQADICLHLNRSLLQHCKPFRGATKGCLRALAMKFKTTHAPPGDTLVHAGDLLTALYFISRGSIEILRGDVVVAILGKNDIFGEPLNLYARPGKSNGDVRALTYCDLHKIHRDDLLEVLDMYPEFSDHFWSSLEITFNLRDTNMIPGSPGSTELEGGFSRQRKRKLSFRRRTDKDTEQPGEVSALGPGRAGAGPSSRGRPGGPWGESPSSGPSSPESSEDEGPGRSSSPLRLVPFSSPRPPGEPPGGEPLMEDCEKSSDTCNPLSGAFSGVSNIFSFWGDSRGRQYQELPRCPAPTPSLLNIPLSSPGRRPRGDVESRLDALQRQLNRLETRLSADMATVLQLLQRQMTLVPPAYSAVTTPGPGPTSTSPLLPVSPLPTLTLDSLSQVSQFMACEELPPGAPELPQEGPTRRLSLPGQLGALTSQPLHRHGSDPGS

Compound | hERG current change (%, negative = inhibition) at 10uM [%]
CSC(=Nc1ccc(Cl)cc1)N[n+]1ccccc1.[I-] | -58.8
O=C(Cn1cnc2scc(-c3cccc([N+](=O)[O-])c3)c2c1=O)NCc1ccco1 | -54
O=C(C[n+]1ccc(C(=O)N/N=C/c2ccc(O)cc2)cc1)c1ccccc1.[Br-] | -6.07
COC(=O)Cc1ccc(NC(=S)N2CCN(C)CC2)cc1 | -0.432
COc1ccc(C(=O)N2CCN(c3ccc(N4CCOCC4)nn3)CC2)cc1OC | 8.55
CC(=O)c1ccc(N2CCN(C(=O)CCCc3nc4ccccc4s3)CC2)cc1 | -29.4
COc1ccc(NS(=O)(=O)c2ccc(NC(=O)C3CC3)cc2)cc1 | 18.6
CSC1=NCCN1S(=O)(=O)c1ccc(NC(C)=O)cc1 | -1.53
COc1ccc(C(CCNCc2ccc(F)cc2)c2ccc(F)cc2)cc1 (stereo not shown) | -64.6
Cc1ccc(S(=O)(=O)CCC(=O)OCC(=O)NCc2ccc(Cl)cc2)cc1 | 36.8
COC(=O)N/N=C/c1ccccc1OCCOc1ccc(OC)cc1 | 16.4
O=C(NCC(c1ccco1)N1CCc2ccccc21)c1ccccc1F (stereo not shown) | -19.8
COc1ccc(CNc2oc(C)nc2C#N)cc1 | -1.09
CC(C)Oc1ccc(C(=O)Nc2ccc(N3CCCC3)cc2)cc1 | 3.36
CCN1CNC(=S)N(c2cc(C)ccc2C)C1 | 15.4
CCO/C=C1/C(=O)N(c2ccccc2OC)C(=O)c2ccccc21 | 23.1
CCCn1c(SCC(=O)NC(C)C23CC4CC(CC(C4)C2)C3)n[nH]c1=O (stereo not shown) | -19.6
COc1cccc(C2C3=C(N=c4s/c(=C\c5ccc(O)cc5)c(=O)n42)c2ccccc2CC3)c1OC (stereo not shown) | 2.74
CC(N=c1ccccn1C(=O)Nc1ccc(Cl)cc1)c1ccco1 (stereo not shown) | 5.75
CCCCC(=O)NC(Nc1nc(C2CC2)cs1)(C(=O)OCC)C(F)(F)F (stereo not shown) | -14
Cc1ccc(S(=O)(=O)N2CCOCC2)cc1NC(=O)CSc1nnc(C2CC2)n1C1CC1 | -7.36
CCOC(=O)Cc1csc(-n2sc3ccccc3c2=O)n1 | 22.6

Compound | hERG current change (%, negative = inhibition) at 10uM [%]
CC1CCN(CC(=O)n2c3c(c4ccccc42)CCCC3)CC1.Cl | 0.546
COc1ccccc1N(CC(=O)N1CCCCC1)S(=O)(=O)c1ccccc1 | 4.01
O=C(CSc1nc(-c2ccccc2)nc2ccccc12)Nc1nccs1 | -3.64
CCC1CCCN1Cn1cnc2c([nH]c3ccccc32)c1=O (stereo not shown) | -62.1
COc1ccc(CCNC(=O)c2cc3c(=O)n4cccc(C)c4nc3s2)cc1OC | 21.3
Cc1cc(C)cc(N(C(=O)Cn2nnc(-c3ccccc3)n2)C(C(=O)NC2CCCCC2)c2ccccn2)c1 (stereo not shown) | -5.43
O=C(Nc1ccc(Cc2ccncc2)cc1)C1CCC(N2C(=O)C3C4C=CC(C4)C3C2=O)CC1 (stereo not shown) | 4.01
COc1cccc2c1cc1c(=O)n(CC(=O)N3CCC(C)CC3)nc(C)n12 | 8.08
O=C(N/N=C/c1ccccc1[N+](=O)[O-])c1ccc(CN2CCOCC2)cc1 | 0.305
O=C(c1cc2cc(F)ccc2[nH]1)N(Cc1cccnc1)CC1CCCN(C2CCCCC2)C1 (stereo not shown) | -77.5
CCOc1ccc(NC(=O)NC(=O)N(C)S(=O)(=O)c2ccc(C)cc2)cc1 | 9.97
O=C(CNC(=O)Cn1ccc2ccccc2c1=O)NCCCN1CCN(c2cccc(Cl)c2)CC1 | -47
CCOC(=O)c1[nH]c(C)c(C(=O)NCCN2CCOCC2)c1C | 7.78
COc1ccc(OC)c(C(=O)CN2C(=O)NC(C)(c3ccccc3)C2=O)c1 (stereo not shown) | 7.79
CC(OC(=O)CCCN1C(=O)c2ccccc2C1=O)C(=O)Nc1ncc(Cl)cc1Cl (stereo not shown) | -1.02
O=C(NCCc1ccccc1)C(=O)NCC1OCCN1S(=O)(=O)c1ccccc1 (stereo not shown) | -20.3
O=C(CN1CCCCCC1)N/N=C/c1cccs1 | 8.75
COc1ccc(-c2oc3cccnc3c2-c2ccc(OC)nc2)cc1 | -0.15
O=C1CCC(=O)N(O)CCCCCNC(=O)CCC(=O)N(O)CCCCCNC(=O)CCC(=O)N(O)CCCCCN1 | 6.14
Cc1ccc2c(c1)N(C(=O)CCC(=O)N1CCN(c3cccc(C)c3C)CC1)CCO2 | -18.7
CC(C)N(Cc1ccccc1)CC(O)COc1ccc(S(=O)(=O)N2CCOCC2)cc1Cl (stereo not shown) | -32.3
CCOC(=O)N1CCC(C(=O)Nc2ccc(OCC)cc2)CC1 | 3.12

Compound | hERG current change (%, negative = inhibition) at 10uM [%]
Cc1ccc(/C=N/NC(=O)c2ccc(Cn3cc([N+](=O)[O-])cn3)o2)cc1 | -65
Cc1ccc(OCCN2C(=O)S/C(=C\c3ccc(C)o3)C2=O)cc1 | 8.03
Cc1cc(C)c(S(C)(=O)=O)c(S(=O)c2ccc(Cl)cc2)n1 (stereo not shown) | -5.4
Cc1cc(C)nc(/N=C(\N)Nc2cccc(OCc3ccccc3)c2)n1 | -74.1
CCCCN(C(=O)CNC(=O)c1ccco1)C(C(=O)NC1CCCCC1)c1ccc(OC)cc1OC (stereo not shown) | 0.632
NC(=O)CC[C@@H]1NC(=O)[C@H](Cc2ccc(O)cc2)NC(=O)c2cc([N+](=O)[O-])cc(F)c2OCC[C@@H](C(N)=O)NC1=O | 20.5
c1ccc2nc3c(nc2c1)[nH]c1ccccc13 | -15
COc1ccc2c3c([nH]c2c1)C(C)=NCC3 | -14.8
COc1cccc2cc(C(=O)NCc3ccc(F)cc3)c(=N)oc12 | 0.974
CC(=O)N=C1SC2CS(=O)(=O)CC2N1c1ccccc1Cl (stereo not shown) | 3.7
O=C(NCc1ccco1)C(c1ccncc1)N(C(=O)Cc1cccs1)c1ccccc1 (stereo not shown) | 3.44
Cc1ccc(NS(=O)(=O)c2cc(C(=O)N3CCN(CCO)CC3)ccc2C)cc1 | 5.5
O=C1Nc2ccccc2C(O)(C(=O)NC2CC2)N1c1ccc(Cl)c(Cl)c1 (stereo not shown) | -2.15
O=S(=O)(NCC1CCCO1)c1ccc(Br)s1 (stereo not shown) | 5.29
COc1ccccc1NC(=O)CCCc1nnc2n(C)c(=O)c3sccc3n12 | 14.2
C/C(=N\OC(=O)c1ccc(Cl)cc1)c1sc(-c2ccccc2)nc1C | 2.17
S=C(NCCCc1ccccc1)NCc1ccccc1 | -13.4
Cc1ccc(Cn2c(C(CO)Nc3nc(-c4ccc(Cl)c([N+](=O)[O-])c4)cs3)nc3ccccc32)cc1 (stereo not shown) | 7.56
COc1ccc(C2N(c3ccc(OC)cc3)C(=O)C3CCCN32)cc1 (stereo not shown) | -3.81
OCCC#Cc1c(-c2ccsc2)sc2ccccc12 | -4.22
O=C(CSc1n[nH]c(=O)[nH]c1=O)NCC1CCCCC1 | 5.22
Cc1ccccc1OCC(=O)NC(C)c1ccccc1 (stereo not shown) | 13.3

Compound | hERG current change (%, negative = inhibition) at 10uM [%]
COc1ccc(/C=C/CN2CCN(Cc3cccc(OC)c3)C(CCO)C2)cc1 (stereo not shown) | -51.9
O=c1c([N+](=O)[O-])c(N2CCOCC2)c2ccccc2n1-c1ccccc1 | 15.9
Cc1nn(C)cc1S(=O)(=O)N1CCN(Cc2cccc(Cl)c2)CC1 | -2.64
CC(O)(CS(=O)(=O)c1ccc(F)cc1)C(=O)Nc1ccc(C#N)c(C(F)(F)F)c1 (stereo not shown) | -21.1
COc1cc2[nH]c(=S)nc(NCc3ccc(C)cc3)c2cc1OC | 4.37
COc1ccc(C(=O)N=c2sccn2C)cc1 | 62.4
COc1ccc(OC(C)C(=O)N(C)Cc2nc(-c3ccc(C)cc3)no2)cc1 (stereo not shown) | -18.2
CN(c1ccccc1)S(=O)(=O)c1cccc(NC(=O)CSc2nnc(C3CC3)n2C)c1 | -30.9
O=C(COc1nc2ccccc2nc1N1CCOCC1)Nc1ccc(S(=O)(=O)N2CCCC2)cc1 | -8.37
CCOC(=O)C(NC(=O)Nc1ncccn1)(Oc1ccccc1)C(F)(F)F (stereo not shown) | -9.7
O=C(c1ccccc1)N1CCN(C(=O)C23CC4CC(CC(C4)C2)C3)CC1 | 2.29
CC(C(=O)Nc1ccccc1)c1ccc(-c2ccccc2)c(F)c1 (stereo not shown) | -0.245
Cc1nn(S(=O)(=O)c2ccc(C(C)(C)C)cc2)c(C)c1S(=O)(=O)N1CCOCC1 | 18.1
COc1ccc([N+](=O)[O-])cc1C1NN=C(c2cccc3ccccc23)S1 (stereo not shown) | -1.53
CN(c1ccccc1)S(=O)(=O)c1ccc(-c2ccccc2)cc1 | 15.1
O=C(COC(=O)/C=C/c1ccc(Cl)cc1)NCCN1C(=O)CSC1=O | -21.2
CC(=O)OCC1OC(Nc2cccc(C)c2)C(OC(C)=O)C(OC(C)=O)C1OC(C)=O (stereo not shown) | -6.61
CCOC(=O)c1c(C)[nH]c(C(=O)COC(=O)c2ccc(F)c(S(=O)(=O)N3CCOCC3)c2)c1C | 15.1
CCOc1ccc(CCNC(=O)C(O)c2ccccc2)cc1 (stereo not shown) | 4.11
